Screen size: about 310,000 compounds; about 14,000 (4.5%) showed an effect of 50% or more. The effect is printed as a negative number. The list shows a part of the results.
Biological target: human ether-à-go-go-related gene (hERG) potassium channel (human, UniProt Q12809)
Assay: primary screen, population patch clamp on CHO cells stably expressing hERG
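Also: peak tail current of the secondary pulse compared with the same well before compound.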

human ether-à-go-go-related gene (hERG) potassium channel, sequence (Q12809 whole entry, looked up): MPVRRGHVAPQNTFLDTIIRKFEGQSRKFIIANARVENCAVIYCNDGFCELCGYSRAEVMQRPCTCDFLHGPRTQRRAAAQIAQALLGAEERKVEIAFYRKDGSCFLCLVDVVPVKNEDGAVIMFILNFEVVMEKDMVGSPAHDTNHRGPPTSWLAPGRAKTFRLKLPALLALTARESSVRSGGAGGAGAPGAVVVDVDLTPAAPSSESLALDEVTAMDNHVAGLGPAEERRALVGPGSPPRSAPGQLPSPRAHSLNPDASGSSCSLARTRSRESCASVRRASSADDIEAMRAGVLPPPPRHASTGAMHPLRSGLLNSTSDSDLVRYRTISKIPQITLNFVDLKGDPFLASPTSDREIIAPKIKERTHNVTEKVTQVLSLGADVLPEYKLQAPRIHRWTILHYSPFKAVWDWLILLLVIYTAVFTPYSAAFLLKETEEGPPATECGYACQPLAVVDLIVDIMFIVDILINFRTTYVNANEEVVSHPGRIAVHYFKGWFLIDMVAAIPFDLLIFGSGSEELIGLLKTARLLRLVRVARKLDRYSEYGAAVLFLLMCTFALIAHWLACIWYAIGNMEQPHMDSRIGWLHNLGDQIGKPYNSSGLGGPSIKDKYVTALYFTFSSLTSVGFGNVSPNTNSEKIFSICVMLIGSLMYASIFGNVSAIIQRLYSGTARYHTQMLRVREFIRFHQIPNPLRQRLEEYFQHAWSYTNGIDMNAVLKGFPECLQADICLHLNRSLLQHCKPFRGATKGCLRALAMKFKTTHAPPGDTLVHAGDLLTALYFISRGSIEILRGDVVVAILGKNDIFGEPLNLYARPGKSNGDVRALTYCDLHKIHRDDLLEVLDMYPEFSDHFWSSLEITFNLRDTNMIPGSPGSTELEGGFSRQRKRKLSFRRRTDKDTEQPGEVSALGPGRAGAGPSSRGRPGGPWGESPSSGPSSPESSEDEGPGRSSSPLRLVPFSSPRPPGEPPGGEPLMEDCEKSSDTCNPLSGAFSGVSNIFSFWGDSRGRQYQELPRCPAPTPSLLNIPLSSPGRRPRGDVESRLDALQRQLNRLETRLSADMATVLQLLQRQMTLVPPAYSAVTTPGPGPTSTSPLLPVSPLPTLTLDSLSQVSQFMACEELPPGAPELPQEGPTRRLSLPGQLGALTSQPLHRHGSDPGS

Going from N=C1c2ccccc2CN1c1ccc(S(=O)(=O)N2CCCCC2)cc1 to O=C(CSc1n[nH]c(-c2cccs2)n1)N1CCN(S(=O)(=O)c2ccc3ccccc3c2)CC1, the “hERG current change (%, negative = inhibition) at 10uM” value rises from -62.5% to -4.67%.

Going from Cc1cc(C)cc(NC(=O)CSc2ccc(-c3cccs3)nn2)c1 to Nn1c(SCc2csc(-c3ccccc3)n2)nnc1-c1cccs1, the “hERG current change (%, negative = inhibition) at 10uM” value rises from -52.2% to 16.3%.

Compared with CCOC(=O)CSc1nnc(-c2ccccc2)c(=O)[nH]1, COc1ccccc1Cn1c(=O)c2ccccc2n2c(SCC(=O)N3CCCCC3)nnc12 is higher in “hERG current change (%, negative = inhibition) at 10uM” value: -15.8% for the first, 15.2% for the second.

First: COc1ccc(CCN=C(N)NS(=O)(=O)c2cccs2)cc1
Second: CCOC(=O)C1=C(O)C(=O)N(c2ccc(S(N)(=O)=O)cc2)C1c1ccc(OC)cc1 (centres unmarked)
The “hERG current change (%, negative = inhibition) at 10uM” value of the first is higher: 6.94% for the first, -2.06% for the second.

First: COc1cc(C(=O)N(Cc2cc3cc(C)ccc3[nH]c2=O)CC2CCCO2)cc(OC)c1OC (centres unmarked)
Second: Cc1ccc2c(c1)c1cccc3c1n2CCN3CCC(N)=O
The “hERG current change (%, negative = inhibition) at 10uM” value of the first is lower: 5.2% for the first, 12.1% for the second.

First: Cn1cc(Br)c(-c2cccc(N3C(=O)CCCC3=O)c2)n1
Second: Cc1nn(CC(=O)Nc2ccc3c(c2)CCC3)c(C)c1[N+](=O)[O-]
The “hERG current change (%, negative = inhibition) at 10uM” value of the first is lower: 9% for the first, 19.1% for the second.

First: CC1Cc2ccccc2N1C(=O)c1ccc2c(c1)OCO2 (centres unmarked)
Second: O=C1COc2ccc(S(=O)(=O)Nc3ccc4c(c3)OCO4)cc2N1
The “hERG current change (%, negative = inhibition) at 10uM” value of the first is lower: 5.67% for the first, 19.4% for the second.

Compared with CN1CCN(C(=O)c2sc(=S)n(-c3ccccc3)c2N)CC1, Cc1nc2sc(C(c3ccco3)N3CCN(c4ccccc4)CC3)c(O)n2n1 (centres unmarked) is lower in “hERG current change (%, negative = inhibition) at 10uM” value: -10.2% for the first, -13.2% for the second.

First: Cc1sc2nc(CN3CCCC3)nc(N3CCN(C(=O)c4ccco4)CC3)c2c1C
Second: C=CCn1c(CSCc2ccccc2)nnc1SCC(=O)N1CCN(c2ccccc2)CC1
The “hERG current change (%, negative = inhibition) at 10uM” value of the first is lower: -68.6% for the first, -23.6% for the second.

First: COc1ccc(C2N(C(=O)CN3CCOCC3)CCN2S(=O)(=O)c2ccccc2)cc1 (centres unmarked)
Second: Cl.O=C(c1ccc(Br)cc1)C(CN1CCOCC1)c1ccccc1 (centres unmarked)
The “hERG current change (%, negative = inhibition) at 10uM” value of the first is lower: -9.02% for the first, 6.72% for the second.

First: CC(=O)Nc1cccc(OCC(=O)NS(=O)(=O)c2ccc(C)cc2)c1
Second: CC(=O)Nc1ccc(S(=O)(=O)N2CCSC2c2ccco2)cc1 (centres unmarked)
The “hERG current change (%, negative = inhibition) at 10uM” value of the first is higher: 1.18% for the first, -2.55% for the second.

Compared with COc1ccc(/C=C/C(=O)OCC(=O)NCCC2=CCCCC2)cc1, COc1cccc(CN(C)C(=O)CCNC(=O)c2ccco2)c1 is lower in “hERG current change (%, negative = inhibition) at 10uM” value: 18% for the first, 1.01% for the second.

First: O=C(N/N=C/c1cc2cc3c(cc2nc1Cl)OCO3)c1ccncc1
Second: Cc1cc(C)nc(NC(=S)Nc2cccc(F)c2)c1
The “hERG current change (%, negative = inhibition) at 10uM” value of the first is higher: 16.6% for the first, 7.1% for the second.

Compared with CCC/C(=N\NC(=O)c1ccco1)c1ccc(Cl)s1, Cc1occc(=O)c1OCc1c(Cl)cccc1Cl is higher in “hERG current change (%, negative = inhibition) at 10uM” value: 2.73% for the first, 10.7% for the second.

Going from CN(C)CCOCCOc1ccc(Cl)cc1C(C)(C)C.O=C(O)C(=O)O to COc1ccccc1NC(=O)CC(NCCN(C)C)C(=O)O (centres unmarked), the “hERG current change (%, negative = inhibition) at 10uM” value rises from -37.3% to 30.1%.

First: C=Cn1ccnc1P(=S)(c1nccn1C=C)c1nccn1C=C
Second: CCCCN(C)C(=O)c1nc2ccccn2c1CNCCCn1ncc2ccccc21
The “hERG current change (%, negative = inhibition) at 10uM” value of the first is higher: 18.7% for the first, -55% for the second.

First: O=c1nc(/C=C/c2ccc(Cl)cc2Cl)cc(C(F)(F)F)[nH]1
Second: Cc1cc(C)n(-c2cccc(Cl)c2C#N)n1
The “hERG current change (%, negative = inhibition) at 10uM” value of the first is lower: 5.22% for the first, 7.39% for the second.

Compared with O=S(=O)(Nc1ccccc1Cl)c1cc(NC(=S)NCCN2CCOCC2)ccc1Cl, COc1ccc(C2N(Cc3ccccc3)CCN2Cc2ccccc2)cc1[N+](=O)[O-] is lower in “hERG current change (%, negative = inhibition) at 10uM” value: 14% for the first, -29.9% for the second.

First: CC1SC2(NC1=O)C1CC3CC(C1)CC2C3 (centres unmarked)
Second: COCCn1c(C)cc(C(=O)CN2C(=O)NC3(CCCCCC3)C2=O)c1C
The “hERG current change (%, negative = inhibition) at 10uM” value of the first is higher: 3.83% for the first, -27.8% for the second.

First: CC(C)(C)NC(=O)NC(=O)COC(=O)c1cc(=O)[nH]c2ccccc12
Second: CCOc1ccc(C(CC(=O)O)n2cnnn2)cc1OC (centres unmarked)
The “hERG current change (%, negative = inhibition) at 10uM” value of the first is lower: 0.0254% for the first, 23.9% for the second.

Going from C[C@@]12C(=O)N(c3cccc(F)c3)C(=O)N1[C@H](c1ccc(F)cc1)[C@@H]1C(=O)N(C3CCCCC3)C(=O)[C@@H]12 to C#CCN(CC=C)C(=O)c1cccc(OC2CCN(S(C)(=O)=O)CC2)c1, the “hERG current change (%, negative = inhibition) at 10uM” value rises from -0.893% to 5.12%.

Going from O=S(=O)([N-]c1nc2ccccc2nc1-n1cc[n+](Cc2ccccc2)c1)c1ccc(Cl)cc1 to O=C(Nc1nc(-c2ccc(Cl)cc2)cs1)C1CCCO1 (centres unmarked), the “hERG current change (%, negative = inhibition) at 10uM” value falls from 13.2% to -41%.

Reference: article PMC4336329 (PLoS ONE, 2015)
